Laboratory results from PubChem BioAssay AID1434 (Sanford-Burnham Center for Chemical Genomics, 2008).
The list shows a part of the results. Further columns of the screen follow, without active or inactive calls. The list favours compounds with an active or inconclusive main result.

The molecules below were run against Runt-related transcription factor 1 (Homo sapiens) + Core-binding factor subunit beta (Homo sapiens) (UniProt Q01196+Q13951) (assay: disruptors of Runt domain/CBFb-SMMHC interaction – biochemical, FRET, Cerulean-Runt, Venus-CBFb-SMMHC, uHTS, primary screen (AID 1434;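 note: 0% = DMSO wells and 100% = wells with excess untagged CBFb-SMMHC; inhibitors lower the FRET ratio by blocking Runt binding to CBFb-SMMHC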)). Settings: Cerulean-Runt/Venus-CBFb-SMMHC FRET ratio 530/480, 1 h; retest duplicate average; at 20 µM; stronger effect = higher value.
Sequence of UniProt Q01196 (Q01196 whole entry, looked up, the tested form may be a part): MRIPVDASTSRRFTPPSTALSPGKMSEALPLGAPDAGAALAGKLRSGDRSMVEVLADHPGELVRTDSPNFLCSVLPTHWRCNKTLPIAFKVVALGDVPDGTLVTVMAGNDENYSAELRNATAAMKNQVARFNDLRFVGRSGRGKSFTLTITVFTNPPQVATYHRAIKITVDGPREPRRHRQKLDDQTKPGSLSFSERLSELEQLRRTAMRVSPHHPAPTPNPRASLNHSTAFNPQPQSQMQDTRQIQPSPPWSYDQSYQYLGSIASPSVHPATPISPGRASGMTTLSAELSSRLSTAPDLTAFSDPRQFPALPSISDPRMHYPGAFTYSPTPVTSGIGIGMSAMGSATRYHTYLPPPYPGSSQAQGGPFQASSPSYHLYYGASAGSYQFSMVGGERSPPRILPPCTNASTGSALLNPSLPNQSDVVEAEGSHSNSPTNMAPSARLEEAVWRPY
Sequence of UniProt Q01196 (Q13951 whole entry, looked up, the tested form may be a part): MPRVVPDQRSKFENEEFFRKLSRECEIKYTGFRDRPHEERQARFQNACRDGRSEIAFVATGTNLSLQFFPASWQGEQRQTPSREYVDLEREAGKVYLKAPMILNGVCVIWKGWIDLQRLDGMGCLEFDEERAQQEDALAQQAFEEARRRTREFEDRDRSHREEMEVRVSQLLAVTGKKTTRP

Structure (SMILES) | inhibition [%]
CCCCC(CC)Cn1c(N)c(C#N)c2nc3ccccc3nc21 (stereo unspecified) | 116
COc1ccc(-n2c3nc4ccccc4nc3c3c(=N)oc(C)nc32)cc1 | 127
Nc1nc2nc(-c3cccs3)cc(C(F)(F)F)n2n1 | 70.6
N#Cc1c(N)n(-c2ccc(C(=O)O)cc2)c2nc3ccccc3nc12 | 70.6
CCN(CC)Cc1c(O)ccc2c(C)c(CC(=O)OC)c(=O)oc12 | 171
COC(=O)C1=CN(Cc2cccs2)C=C(C(=O)OC)C1c1ccc(OC)cc1OC | 144
CCOc1cc(C2C3=C(CCCC3=O)N(CCC(=O)O)C3=C2C(=O)CCC3)ccc1OS(=O)(=O)c1ccc(C)cc1 | 71.5
COc1cc(SSc2cc(OC)cc([N+](=O)[O-])c2N)c(N)c([N+](=O)[O-])c1 | 52.1
COC(=O)C1=C(C)NC2=C(C(=O)CCC2)C1c1cccc(C)n1 (stereo unspecified) | 132
CCOC(=O)c1c(NS(=O)(=O)c2cccc(OC)c2)sc2c1CCC2 | 71.2
CCOC(=O)C1=C(C)NC2=C(C(=O)C(C(=O)OCC)C(c3ccc(OC)cc3)C2)C1c1ccccn1 (stereo unspecified) | 83.7
COc1cccc(C(=O)Nc2nc3c(s2)CN(C)CC3)c1 | 70.8
COc1ccc(-c2cc(C(F)F)n3ncc(C(=O)NCC4CCCO4)c3n2)cc1 (stereo unspecified) | 71.5
O=C(O)c1cc(-c2ccc(/C=C3\NC(=O)N(c4ccccc4)C3=O)o2)ccc1Cl | 104
N#CC(C#N)=C1C=C2C=C(N3CCCCCC3)CCC2CC1 (stereo unspecified) | 71.5
CNc1nc(-c2ccccc2)[n+](-c2ccc(C)cc2)s1 | 56.7
COc1cc2nc3c4ccccc4n(CC#N)c3nc2cc1OC | 77.4
Cc1ccc(N2C=Nc3ccc(C)c4nc(C)cc2c34)cc1 | 86.7
O=C(CCCCl)Oc1ccc2cc(-c3ccc4ccccc4n3)c(=O)oc2c1 | 71.5
CC(NC(=O)OC(C)(C)C)C(=O)Oc1ccc2ccc(=O)oc2c1 (stereo unspecified) | 117
Cn1c(C(=O)NCC2CCCO2)cc2c(=O)n3ccccc3nc21 (stereo unspecified) | 54.2
CN1C=CC2=C(C#N)C(N)C(C#N)(C#N)C(c3ccccc3)C2C1 (stereo unspecified) | 71.5

Structure (SMILES) | inhibition [%]
CCOCCCNC(=O)/C(C#N)=C/c1cc(Br)c(O)c(Br)c1 | 151
Cc1cc(C)cc(Oc2nc3ccccn3c(=O)c2/C=C(\C#N)C(=O)NC2CCS(=O)(=O)C2)c1 (stereo unspecified) | 88
CCOCCCNC(=O)c1c(N)n(-c2ccc(S(N)(=O)=O)cc2)c2nc3ccccc3nc12 | 99.3
Cc1cccn2c(=O)c3cc(C(N)=S)c(=N)n(CCCN4CCOCC4)c3nc12 | 70.6
CCN1CCc2nc(NC(=O)CC(c3ccccc3)c3ccccc3)sc2C1 | 52.2
Cc1ccccc1-n1c(=O)cc(N2CCc3ccccc3C2)[nH]c1=O | 84.8
Cc1ccccc1-n1c(=O)c(C#N)cc2c(=O)n3ccccc3nc21 | 72.9
N#Cc1cc2cc3c(cc2nc1NCCNC(=S)NCCCN1CCOCC1)OCO3 | 126
COCCn1c(N)c(C(=O)OCc2ccccc2)c2nc3ccccc3nc21 | 82.8
CCOC(=O)c1cc2c(=O)n3cccc(C)c3nc2n(Cc2ccccc2Cl)c1=N | 83
Cc1ccc(/C=C2\Oc3c(ccc(O)c3CN3CCN(CCO)CC3)C2=O)cc1 | 70.6
COc1ccc(C2=CC(c3ccco3)n3ncnc3N2)cc1 (stereo unspecified) | 52.7
CCCCn1c(=O)nc2n(-c3ccccc3C)c3ccccc3cc-2c1=O | 71.5
Nc1c(C(=O)NCc2ccc(F)cc2)c2nc3ccccc3nc2n1CCCN1CCOCC1 | 114
CC(=O)N=c1c(C#N)cc2c(=O)n3cccc(C)c3nc2n1Cc1ccco1 | 70.6
Cc1ccc(Oc2nc3c(C)cccn3c(=O)c2/C=C(\C#N)C(N)=O)cc1 | 175
COc1cc(C(=O)Nc2sc3c(c2C#N)CCN(C(C)=O)C3)cc(OC)c1OC | 76.3
COc1ccccc1CCn1c(N)c(C#N)c2nc3ccccc3nc21 | 156
CCOC(=O)c1cc2c(=O)n3cccc(C)c3nc2n(Cc2ccco2)c1=NC(=O)c1cccnc1 | 102
CC(=O)c1sc2nc(C)cc(C)c2c1N | 69
CCN(CC)c1ccc2c(c1)oc(=O)c1c(Cl)cc(=O)oc12 | 72.9
CCCc1nc2c(=O)n(C)c(=O)[nH]c2n1C | 179

Structure (SMILES) | inhibition [%]
CCn1c2ccccc2c2c3ncc4cccn4c3ccc21 | 61.4
N#Cc1c(N)n(CCNC(=O)c2cccs2)c2nc3ccccc3nc12 | 115
COc1ccc(OC)c(C2CC(=O)N3CN(c4ccccc4)CSC3=C2C#N)c1 (stereo unspecified) | 85.4
COc1ccc(C2C3=C(CC(C)(C)CC3=O)N(C)C3=C2C(=O)CC(C)(C)C3)cc1 | 70.6
CC(C)OC(=O)CC(=O)CSc1nc2c(cc1C#N)CCCCCC2 | 84.4
CCCOC(=O)C1=C(C)NC2=C(C(=O)CC(C)(C)C2)C1c1cccnc1 (stereo unspecified) | 126
Cc1ccc(S(=O)(=O)c2cc3c(=O)n4cc(C)ccc4nc3n(CC3CCCO3)c2=N)cc1 (stereo unspecified) | 146
CCOc1ccc2nc(NCCNC(=S)NCCCN(C)C)c(C#N)cc2c1 | 70.6
Cc1cccc(/C=C(\C(=O)C(=O)O)c2ccc3ccccc3n2)c1 | 83.7
CCOC(=O)c1c(NC(=S)Nc2ccc(Cl)cc2)sc2c1CCN(C)C2 | 166
CCN1CCc2c(sc(NC(=O)Nc3ccc(Cl)c(Cl)c3)c2C(N)=O)C1 | 71.5
Cc1ccc(NC(=O)Cn2sc3nc(C)cc(C)c3c2=O)c(Cl)c1 | 52.4
CC(C)C(=O)N(c1ccc2oc(=O)sc2c1)S(=O)(=O)c1ccccc1 | 61.9
Cc1c(C=O)c2ccccn2c1C(=O)c1cccs1 | 90.1
CCOC(=O)c1sc(Nc2nc3ccc(OC)cc3s2)cc1C | 78.8
O=C(O)c1c2c(nc3ccccc13)/C(=C/c1ccc(O)cc1)CC2 | 70.6
COC(=O)c1ccc(C(=O)OC)c(NC(=O)Oc2ccccc2)c1 | 121
CCOC(=O)c1cc2c(=O)n3ccccc3nc2n(Cc2ccco2)c1=NC(=O)c1cccc(OC)c1 | 73.5
Oc1c(C=NCc2ccccc2)sc2ccccc12 | 67.9
COCCn1c(-c2cccs2)nc2nc3ccccc3nc21 | 101
Cc1cccn2c(=O)c3cc(S(=O)(=O)c4ccc(F)cc4)c(=N)n(Cc4ccco4)c3nc12 | 70.6
CC(C)(C)C(=O)Oc1ccc2cc(-c3ccc4ccccc4n3)c(=O)oc2c1 | 71.5
